Data reported in publication PMC4336329 (PLoS ONE, 2015).
About 14,000 (4.5%) of roughly 310,000 compounds showed an effect of 50% or more. Effects have a minus sign here. The list shows a part of the results.

Target: human ether-à-go-go-related gene (hERG) potassium channel (human, UniProt Q12809)
Test: primary screen, population patch clamp on CHO cells stably expressing hERG
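Note: peak tail current of the secondary pulse compared with the same well before compound.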

human ether-à-go-go-related gene (hERG) potassium channel, sequence (Q12809 whole entry, looked up): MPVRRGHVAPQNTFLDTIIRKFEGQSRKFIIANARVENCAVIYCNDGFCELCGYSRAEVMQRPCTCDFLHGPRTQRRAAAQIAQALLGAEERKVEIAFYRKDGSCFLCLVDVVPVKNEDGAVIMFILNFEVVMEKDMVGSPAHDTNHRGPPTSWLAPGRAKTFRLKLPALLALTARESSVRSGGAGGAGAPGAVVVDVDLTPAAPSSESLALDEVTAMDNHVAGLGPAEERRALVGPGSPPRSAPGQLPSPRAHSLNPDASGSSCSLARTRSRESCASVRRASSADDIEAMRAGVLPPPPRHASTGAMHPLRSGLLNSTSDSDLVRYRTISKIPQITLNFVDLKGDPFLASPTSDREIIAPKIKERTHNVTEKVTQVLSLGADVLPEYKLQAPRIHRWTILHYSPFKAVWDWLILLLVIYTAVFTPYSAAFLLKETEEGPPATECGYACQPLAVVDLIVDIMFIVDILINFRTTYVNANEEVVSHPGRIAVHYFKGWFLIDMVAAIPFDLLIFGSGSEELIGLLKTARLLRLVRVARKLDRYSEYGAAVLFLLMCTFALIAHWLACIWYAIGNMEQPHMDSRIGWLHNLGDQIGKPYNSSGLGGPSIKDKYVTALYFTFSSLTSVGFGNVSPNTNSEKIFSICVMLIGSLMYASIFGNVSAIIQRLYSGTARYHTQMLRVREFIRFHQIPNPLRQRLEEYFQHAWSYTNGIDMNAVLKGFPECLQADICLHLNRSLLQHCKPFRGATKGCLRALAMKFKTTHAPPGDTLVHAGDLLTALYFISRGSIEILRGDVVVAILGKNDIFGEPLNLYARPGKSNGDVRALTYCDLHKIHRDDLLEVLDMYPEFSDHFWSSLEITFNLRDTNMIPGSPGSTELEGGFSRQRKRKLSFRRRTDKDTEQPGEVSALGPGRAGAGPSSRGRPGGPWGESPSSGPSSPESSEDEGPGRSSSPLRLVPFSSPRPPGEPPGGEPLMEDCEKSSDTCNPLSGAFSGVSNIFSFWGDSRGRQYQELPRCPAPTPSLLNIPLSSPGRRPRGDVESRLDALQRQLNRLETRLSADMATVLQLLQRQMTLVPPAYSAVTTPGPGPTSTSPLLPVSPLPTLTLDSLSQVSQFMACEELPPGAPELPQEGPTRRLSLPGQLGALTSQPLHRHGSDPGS

| Structure (SMILES) | hERG current change (%, negative = inhibition) at 10uM |
| --- | --- |
| COc1cc(/C=N/NC(=O)c2ccncc2)ccc1OCC(=O)Nc1cccc([N+](=O)[O-])c1 | 25.3% |
| CSC(=S)N/N=C(\C)c1ccccc1 | 14.4% |
| CCOc1ccc(-c2nc(CN3CCCCC3CCn3cccn3)c(C)o2)cc1 (stereo not shown) | -71.5% |
| Cc1cc(NC(=O)C(C)Oc2ccccc2)no1 (stereo not shown) | 11.1% |
| Clc1ccc(-n2nnnc2SCc2cn3ccccc3n2)cc1 | -24.8% |
| CCOC(=O)c1ccc(NS(=O)(=O)c2cc(C)ccc2OC)cc1 | -9.08% |
| CCc1cccc(OCC(=O)Nc2ccccc2N2CCCC2)c1 | -8.67% |
| CC1CC(N(C(=O)c2ccco2)c2ccccc2)c2ccccc2N1 (stereo not shown) | -33.6% |
| Cc1cn2c(=O)c(C(=O)NCc3ccc4c(c3)OCO4)cnc2s1 | 7.3% |
| O=C(/C=C/c1ccco1)N1CCN(S(=O)(=O)/C=C/c2ccccc2)CC1 | -45% |
| CN(c1ccc(C(=O)N2CCCCCC2)cc1)S(=O)(=O)c1ccc(Cl)cc1 | -63% |
| COCCC(=O)Nc1ccc2c(c1)CN(C(=O)CCOC)CC2 | 22.9% |
| Cc1ccc(NC(=O)Cc2nc(COC(=O)C(C)NS(=O)(=O)c3ccc(C)cc3)cs2)cc1 (stereo not shown) | -23.6% |
| OC(COc1ccccc1)CN1CCOCC1 (stereo not shown) | 9.83% |
| O=C(O)CSc1ncnc2nc[nH]c12 | 9.28% |
| CCN(C(=O)CSc1nnc(C)n1-c1ccccc1)C1CCS(=O)(=O)C1 (stereo not shown) | 12.6% |
| COc1ccc(NS(=O)(=O)c2ccc(OC)c(NC(=O)CCC3CCCC3)c2)cc1 | 4.04% |
| CC1CCCC(C)N1CC(O)COCC1COc2ccccc2O1.Cl (stereo not shown) | -15.8% |
| CCOC(=O)N1CCN(C(=O)COC(=O)Cc2ccc(OC)cc2)CC1 | 14.4% |
| O=C(O)COc1c(-c2ccccc2)oc2ccccc2c1=O | 8.96% |
| O=C(Nc1nccs1)C1CC2CCC1C2 (stereo not shown) | 6.6% |
| CCC(C)[C@H](NC(=O)OC(C)(C)C)C(=O)N/N=C/c1ccc2nccnc2c1 (stereo partly shown) | -13.8% |

| Structure (SMILES) | hERG current change (%, negative = inhibition) at 10uM |
| --- | --- |
| Cn1c(NCc2ccccc2)nc2c1c(=O)n(Cc1ccc(Br)cc1)c(=O)n2C | 4.56% |
| Cc1cc(Br)ccc1NC(=O)CN(C)C(=O)CSCc1ccccc1 | -5.47% |
| O=C(Nc1nncs1)c1ccc(S(=O)(=O)c2ccccc2)cc1 | 11.4% |
| O=S(=O)(CCN1C=CC(C(F)(F)F)=NCC1)c1ccc(F)cc1 | -1.83% |
| Cc1cccc(NC(=O)C2CCCN(c3ncnc4c3nc3n4CCCCC3)C2)n1 (stereo not shown) | -54.2% |
| COCc1nc2ccccc2n1CCOc1ccccc1OC | 0.661% |
| CCOC(=O)c1[nH]ncc1CN1CCN(Cc2ccccc2)C(CCO)C1 (stereo not shown) | 20.4% |
| CCNC(=S)NC(=NCc1cccnc1)Nc1nc(C)cc(C)n1 | -1.31% |
| NNC(=O)[C@H](Cc1ccccc1)NC(=O)Nc1ccc2c(c1)OCCO2 | 11.4% |
| CN(c1ccc2nc3ccccc3c(=O)n2n1)C1CCCCC1 | -16.7% |
| COCCN(C(=O)COC(=O)c1cc(C)n(-c2ccccc2)c1C)c1c(N)n(Cc2ccccc2)c(=O)[nH]c1=O | -9.46% |
| COc1ccc(/C=C/C(=O)O)cc1S(=O)(=O)N1CCC(C)CC1 | 19.8% |
| Cc1ccc(NC(=O)CN2C(=O)NC3(CCCc4ccccc43)C2=O)cc1S(=O)(=O)N1CCOCC1 (stereo not shown) | 4.45% |
| CC(C)CC(=O)NC(Nc1ccccc1F)C(Cl)(Cl)Cl (stereo not shown) | -18.4% |
| Cc1nn(Cc2cccc(C(=O)O)c2)c(C)c1[N+](=O)[O-] | 1.8% |
| Cc1cccc(C)c1-n1c(C)cc(/C=N/NC(=O)CSc2ncccn2)c1C | -1.46% |
| COCC(=O)NC1CCCCCC1 | 14.9% |
| Cn1c(=O)c2c(ncn2CC(=O)OCC(=O)Nc2ccccc2Cl)n(C)c1=O | 4.46% |
| COc1cc2c(cc1OC)CN(C(=O)c1cc(=O)c3ccccc3o1)CC2 | -8.87% |
| Cc1nc2scc(-c3ccc(Cl)cc3)c2c(=O)n1N | -14.2% |
| Cl.O=C(C1CCCO1)N1CCC(c2nc3ccccc3[nH]2)CC1 (stereo not shown) | 7.97% |
| Cc1c(CCOC(=O)CC23CC4CC(CC(C)(C4)C2)C3)sc[n+]1CC(=O)c1ccccc1.[Br-] | -56.8% |

| Structure (SMILES) | hERG current change (%, negative = inhibition) at 10uM |
| --- | --- |
| Nc1ccc(S(=O)(=O)NCC(=O)OC2CCOC2=O)cc1[N+](=O)[O-] (stereo not shown) | 1.16% |
| CCN(CC(=O)NCc1ccc(Cl)cc1)C(=O)c1cccc(S(=O)(=O)Nc2ccc(OC)cc2)c1 | -0.458% |
| CN(C)S(=O)(=O)c1ccc(NC(=O)COC(=O)C2CC3CCCC(C2)C3=O)cc1 (stereo not shown) | 6.03% |
| N#Cc1ccc(N2Cc3ccccc3C2=NC(=O)c2cccnc2Cl)cc1 | -30.8% |
| CN(CC(=O)Nc1ccccc1Br)C(=O)CNC(=O)c1ccc2c(c1)OCO2 | 6.05% |
| Cc1cccc(N2CCN(C(=O)C3CCN(c4ncnc5c4nc4n5CCCCC4)CC3)CC2C)c1 (stereo not shown) | -40.9% |
| CC(C)C(C(=O)NCC1CCCO1)N(C(=O)CNS(=O)(=O)c1ccccc1)C1CCCCC1 (stereo not shown) | 15.6% |
| CSCCOC(=O)C1=C(C)NC(=O)NC1c1ccc2c(c1)OCO2 (stereo not shown) | 11.3% |
| CC(C)C12CN3CC(C(C)C)(CN(C1)C3c1ccco1)C2=O (stereo not shown) | 8.35% |
| COc1ccc(CNS(=O)(=O)c2cccc(S(=O)(=O)N3CCOCC3)c2)cc1 | -28.2% |
| Cc1ccc(OCC(=O)NNC(=O)c2cccnc2)cc1 | 6.56% |
| Cn1cc(CNC(=O)c2cc(COc3ccc4c(c3)CCCC4)on2)cn1 | -18.5% |
| Cc1cc(C)c2c(CC(=O)Nc3ccc(Cl)cn3)coc2c1 | -6.07% |
| CCOC(=O)Nc1ccc2c(c1)Nc1ccccc1S2 | 1.72% |
| CSc1ccc(/C=C/C(=O)N2CCN(c3ccccn3)CC2)cc1 | -23.8% |
| CCOC(=O)c1c(NC(=O)C2CCN(S(=O)(=O)c3ccc(Cl)cc3)CC2)sc2c1CCCC2 | 1.63% |
| O=C(CCC(=O)Nc1ccc(F)cc1)N/N=C/c1ccc(O)cc1O | 3.23% |
| O=C(O)CCCC(=O)N1CCC(C(O)(c2ccccc2)c2ccccc2)CC1 | 15.5% |
| Cc1cc(C)n(CCC(=O)Nc2cccc(F)c2)n1 | 5.83% |
| N#Cc1ccc(CSc2nnc(-c3cnccn3)o2)cc1 | -20.4% |
| COc1ccc(C2C(C#N)=C(N)Oc3n[nH]c(C)c32)cc1Cn1nnc2ccccc21 (stereo not shown) | -8.03% |
| COc1ccc(-c2nc(CN3CCC(C(=O)NC4CC4)CC3)c(C)o2)cc1OC | -12.8% |

| Structure (SMILES) | hERG current change (%, negative = inhibition) at 10uM |
| --- | --- |
| COc1ccc(NC(=S)N/N=C/c2cccn2Cc2ccc(F)cc2Cl)cc1 | 19.6% |
| CCC1CCCCN1Cc1nc2c(c(=O)n(C)c(=O)n2C)n1CCC(C)C (stereo not shown) | -33.4% |
| Cc1ccc(NC(=O)CSc2nc(=O)cc(N)n2CCc2ccccc2)cc1 | -36.4% |
| COc1ccc([N+](=O)[O-])cc1NC(=O)CSCc1ccccc1C | -7.85% |
| C=Cn1c(P(=S)(N2CCOCC2)N2CCOCC2)cc2c1CCCC2 | -5.05% |
| O=C(Nc1ccc(N2CCN(C(=O)c3cccs3)CC2)cc1)c1cccnc1Cl | -23.3% |
| CC(NC(=O)COc1ccccc1Cl)c1ccccc1 (stereo not shown) | 7.82% |
| COc1ccc2c(/C=N/Nc3ccc(C(=O)O)cc3)c[nH]c2c1 | 3.54% |
| COC(=O)CC1C(=O)NCCN1C(=O)c1ccc2oc(C(C)C)nc2c1 (stereo not shown) | 19.7% |
| Cc1cccc(NC(=O)c2oc(=O)c3ccccc3c2-c2ccccc2)c1C | -11.4% |
| O=C(CSc1nnc(CNC(=O)c2ccccc2)o1)NCc1ccco1 | -0.224% |
| Cc1nc(-c2ccccc2)[nH]c(=O)c1Oc1ccc(Cl)cc1Cl | 2.13% |
| Cc1ccc(S(=O)(=O)Nc2ccc(O)c3ncccc23)cc1.Cl | -12.8% |
| S=C(NCCc1ccccc1)NCCN1CCOCC1 | 5.86% |
| CC(NCCCOc1cccc2ccccc12)c1ccccc1.O=C(O)C(=O)O (stereo not shown) | 0.734% |
| O=c1/c(=C/c2ccccn2)sc2nc3ccccc3n12 | -5.66% |
| Cc1ccc(CCNC(=O)c2ccc3nc4ccccc4c(=O)n3c2)cc1 | 6.08% |
| COc1ccc(CC(=O)Nc2cccc(-c3nnc(-c4ccc(C)cc4)o3)c2)cc1OC | 3.54% |
| COC(CNC(=O)c1ccc2c(c1)ncn2-c1cccc(F)c1)OC | 9.13% |
| COc1ccc(-c2cn3c(C)c(C(=O)N4CCN(c5ccccc5F)CC4)sc3n2)cc1 | -29.8% |
| COc1ccccc1C(=O)OCC(=O)Nc1ccc(Cl)cn1 | 10.1% |
| CCN(CC)c1ccc(C(=O)OCC(=O)Nc2ccc3[nH]c(=O)[nH]c3c2)cc1 | 5.58% |
